Laboratory results as given in paper PMC4336329 (PLoS ONE, 2015).
Screen size: about 310,000 compounds; about 14,000 (4.5%) showed an effect of 50% or more. Effects have a minus sign here. The list shows a part of the results.

What follows are compounds tested against human ether-à-go-go-related gene (hERG) potassium channel (human, UniProt Q12809) (assay: primary screen, population patch clamp on CHO cells stably expressing hERG).
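Also: peak tail current of the secondary pulse compared with the same well before compound.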

Sequence of human ether-à-go-go-related gene (hERG) potassium channel (Q12809 whole entry, looked up): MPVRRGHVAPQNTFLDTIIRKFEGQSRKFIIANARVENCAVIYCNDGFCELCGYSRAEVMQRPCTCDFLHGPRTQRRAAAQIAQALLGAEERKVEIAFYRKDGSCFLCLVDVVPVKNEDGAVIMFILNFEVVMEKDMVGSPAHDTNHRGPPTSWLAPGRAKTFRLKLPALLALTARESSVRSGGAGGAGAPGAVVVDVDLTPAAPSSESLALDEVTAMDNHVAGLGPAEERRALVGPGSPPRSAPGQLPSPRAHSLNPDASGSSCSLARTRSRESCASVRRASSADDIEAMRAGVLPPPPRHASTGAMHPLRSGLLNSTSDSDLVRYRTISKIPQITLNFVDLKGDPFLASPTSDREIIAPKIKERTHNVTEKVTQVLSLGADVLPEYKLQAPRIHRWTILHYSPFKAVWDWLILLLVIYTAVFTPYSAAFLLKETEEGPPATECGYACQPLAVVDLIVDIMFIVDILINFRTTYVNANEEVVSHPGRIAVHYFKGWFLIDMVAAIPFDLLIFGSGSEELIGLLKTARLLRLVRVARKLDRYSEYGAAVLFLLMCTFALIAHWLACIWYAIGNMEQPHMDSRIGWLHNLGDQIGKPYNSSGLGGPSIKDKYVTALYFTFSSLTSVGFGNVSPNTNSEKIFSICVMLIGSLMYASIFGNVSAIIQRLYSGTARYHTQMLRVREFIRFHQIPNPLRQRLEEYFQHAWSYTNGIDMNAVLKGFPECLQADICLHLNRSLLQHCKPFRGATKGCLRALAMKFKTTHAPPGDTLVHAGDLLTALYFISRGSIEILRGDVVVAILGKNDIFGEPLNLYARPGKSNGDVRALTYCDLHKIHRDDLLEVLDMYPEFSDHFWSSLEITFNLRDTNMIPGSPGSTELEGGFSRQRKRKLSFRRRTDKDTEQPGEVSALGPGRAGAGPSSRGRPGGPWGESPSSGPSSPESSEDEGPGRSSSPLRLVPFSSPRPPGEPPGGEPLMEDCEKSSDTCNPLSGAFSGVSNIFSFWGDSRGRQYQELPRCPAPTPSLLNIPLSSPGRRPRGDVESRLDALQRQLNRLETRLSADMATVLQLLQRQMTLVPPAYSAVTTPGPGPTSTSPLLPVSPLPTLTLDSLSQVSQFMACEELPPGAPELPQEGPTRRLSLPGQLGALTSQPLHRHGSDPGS

Compared with `CCCCN(C(=S)Nc1cccc(SC)c1)C1CCN(C(C)=O)CC1`, `CCCS(=O)(=O)N1CCC(C(=O)NCCc2ccc(C)cc2)CC1` is higher in “hERG current change (%, negative = inhibition) at 10uM” value: -28.9% for the first, -10.7% for the second.

First: O=C(NCCN1C(=O)S/C(=C\c2cccs2)C1=O)c1ccco1
Second: Cc1ccc(SCC(=O)NCCN2C(=O)CSC2=O)c(C)c1
The “hERG current change (%, negative = inhibition) at 10uM” value of the first is lower: -34.1% for the first, -6.73% for the second.

Compared with `CCOC(=O)Cc1csc(NC(=O)CSc2nc3cccnc3n2CC)n1`, `COc1ccccc1NC(=O)C(C)OC(=O)CSCC(=O)Nc1ccc(C)cc1C` (centres unmarked) is higher in “hERG current change (%, negative = inhibition) at 10uM” value: -2.45% for the first, 2.23% for the second.

Going from `Cc1noc(C)c1C(=O)NC1CCCc2ccccc21` (centres unmarked) to `Cc1ccccc1NC(=O)c1cccc(OCc2c(C)noc2C)c1`, the “hERG current change (%, negative = inhibition) at 10uM” value falls from 3.77% to -17.2%.

Going from `Cc1c(C(=O)OCCOc2ccc(Br)cc2)sc(=S)n1C` to `CN(CCOc1ccc(F)cc1)Cc1ccccc1.O=C(O)C(=O)O`, the “hERG current change (%, negative = inhibition) at 10uM” value falls from 8.16% to -23.3%.

Going from `Cc1[nH]c2ccccc2c1C(=O)COC(=O)c1c(-c2c(F)cccc2Cl)noc1C` to `Cc1nn(C(=O)CCC(=O)NCc2ccccc2Cl)c2ccccc12`, the “hERG current change (%, negative = inhibition) at 10uM” value falls from 22.8% to 15.2%.

Compared with `O=C(NN1C(=O)C2C3C=CC([C@@H]2C1=O)C31CC1)c1ccccc1` (some centres unmarked), `O=C(NN1C(=O)C2C3C=CC(C3)C2C1=O)c1ccccc1` (centres unmarked) is lower in “hERG current change (%, negative = inhibition) at 10uM” value: 18.3% for the first, 15.9% for the second.

Going from `CCOc1cc(NC(=O)Nc2ccccc2)c(OCC)cc1NC(=O)CC` to `COc1ccc(NC(=S)NNS(=O)(=O)c2ccc3ccccc3c2)c(OC)c1`, the “hERG current change (%, negative = inhibition) at 10uM” value falls from 22.8% to 9.9%.

Compared with `CCCOc1ccc(-c2c(C(=O)N/N=C/C3CC=CCC3)nnn2-c2nonc2N)cc1` (centres unmarked), `N#Cc1nc(-c2ccc(OCc3ccc(Cl)cc3)cc2)oc1N1CCC(C(N)=O)CC1` is lower in “hERG current change (%, negative = inhibition) at 10uM” value: 16.8% for the first, 10.4% for the second.

Compared with `COc1nc(-c2ccccc2)cc(C(F)(F)F)n1`, `Cn1c(SCc2nc3cc(C(=O)O)ccc3c(=O)[nH]2)nnc1C(F)(F)F` is higher in “hERG current change (%, negative = inhibition) at 10uM” value: -10.6% for the first, 2.37% for the second.

Compared with `Cc1cc(NS(=O)(=O)c2ccc(NC(=O)COc3ccccc3Cl)cc2)no1`, `Cc1cccc(-n2c(CNC(=O)c3ccc(S(=O)(=O)N4CCCC4)cc3)n[nH]c2=S)c1` is higher in “hERG current change (%, negative = inhibition) at 10uM” value: -20.3% for the first, -4.21% for the second.

Going from `CCc1ccc(-c2nnn(Cc3nn[nH]n3)n2)cc1` to `CCOC(=O)c1cnn(-c2ncnc3sc(CC)cc23)c1N`, the “hERG current change (%, negative = inhibition) at 10uM” value rises from -4.1% to 10.9%.

First: CC(=O)C1=C(C)Nc2ncnn2C1c1cccc(O)c1 (centres unmarked)
Second: Cc1cc(C(=O)OCC(=O)Nc2ccc(F)cc2F)c(C)n1C1CC1
The “hERG current change (%, negative = inhibition) at 10uM” value of the first is higher: 19.2% for the first, 9.85% for the second.

Going from `CC(C)Nc1nc(Cl)nc(NC(C)C)n1` to `CC(C)Oc1ccc(S(=O)(=O)N2CCCCC2)cc1NC(=O)C1CCCC1`, the “hERG current change (%, negative = inhibition) at 10uM” value falls from 21% to -15%.

First: CN1C(=O)SC(Nc2ccc(F)cc2)C1=O (centres unmarked)
Second: O=C(O)CC(C(=O)Nc1ccc(Cl)cc1)N1CCCCCC1 (centres unmarked)
The “hERG current change (%, negative = inhibition) at 10uM” value of the first is lower: 12.7% for the first, 19.9% for the second.

First: COc1ccc(OC2CCN(S(=O)(=O)c3ccc(C(C)=O)cc3)CC2)cc1
Second: CCOc1ccc(C(=O)NCC(=O)NNC(=O)CN(C)S(=O)(=O)c2ccc(Cl)cc2)cc1
The “hERG current change (%, negative = inhibition) at 10uM” value of the first is lower: -19.7% for the first, 14.8% for the second.

First: Cc1ccc(C)c(N(C)S(=O)(=O)c2ccc3[nH]cc(C(=O)NCCN4CCOCC4)c(=O)c3c2)c1
Second: Cc1nn(S(=O)(=O)c2cccc([N+](=O)[O-])c2)c(C)c1S(=O)(=O)N1CCOCC1
The “hERG current change (%, negative = inhibition) at 10uM” value of the first is lower: -12.3% for the first, 13.2% for the second.

First: Cc1ccc(C(=O)COC(=O)c2ccc(O)cc2)cc1
Second: Cc1cc(C)cc(NC(=O)COC(=O)c2ccc3c(c2)OCCO3)c1
The “hERG current change (%, negative = inhibition) at 10uM” value of the first is higher: 16.4% for the first, 7.14% for the second.

Going from `O=C(c1cc(-c2cccs2)on1)N1CCN(c2ccccc2)CC1` to `CC(C)C(=O)N(Cc1ccccc1)S(=O)(=O)c1ccc2c(c1)oc(=O)n2C`, the “hERG current change (%, negative = inhibition) at 10uM” value rises from -16.7% to -5.06%.

First: Cc1ccc(-c2noc(C3CCCN(C(=O)C4CCCCC4)C3)n2)o1 (centres unmarked)
Second: Cl.c1coc(Cn2nnnc2CN2CCN(C3CCCC3)CC2)c1
The “hERG current change (%, negative = inhibition) at 10uM” value of the first is higher: -7.48% for the first, -20% for the second.

Going from `COc1cc(/C=C2/SC(=Nc3ccc(O)cc3)NC2=O)cc(OC)c1O` to `O=C(CCC1CCCN(C(=O)c2ccc3c(c2)OCO3)C1)NCc1ccc(F)c(F)c1` (centres unmarked), the “hERG current change (%, negative = inhibition) at 10uM” value falls from 12.8% to -8.73%.

Compared with `OC[C@H]1O[C@H](OC[C@H]2OC(O)[C@H](O)[C@@H](O)[C@@H]2O)[C@H](O)[C@@H](O)[C@@H]1O` (some centres unmarked), `O=C(Nc1nnc(C2CC2)s1)C1CC(=O)N(c2ccc3c(c2)OCCO3)C1` (centres unmarked) is lower in “hERG current change (%, negative = inhibition) at 10uM” value: 12.9% for the first, -2.13% for the second.
